In PubChem BioAssay AID1508624 (National Center for Advancing Translational Sciences (NCATS), 2021):
Hit rate of the full screen: of about 48,000 compounds, about 120 (0.25%) were called active. Not shown: some 4% with an inconclusive outcome. Calls follow the shape of the dose curve; as a rule, active = well fitted activation curve with a large enough effect; inconclusive = small, poorly fitted or top-dose-only effect, or another doubt; inactive = no such curve, though single readings can be large or run the other way. The list shows a part of the results.

assay: Primary qHTS for Identification of Small Molecule Activators of Huntingtin-Antisense Promoter Activity; conditions: HEK293 HTT-AS promoter firefly luciferase reporter, 24 h; series mostly up to 57.5 µM; activity change, positive = activation: at the top concentration; also: nearly all actives have a fitted effect of over 55% in size
Outline: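 Firefly luciferase readout (Dual-Glo, 10 min RT) after 24 h, 37 °C compound exposure (final up to 57.5 uM) of HEK293 reporter cells cultured 24 h beforehand; PTC124 at 50 uM final as control inhibitor; activity scaled vehicle 0%, zero RLU -100%.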
Potency is read from the fitted curve at half-maximal effect.

| SMILES | activity change, positive = activation | Potency |
| --- | --- | --- |
| COc1ccc(CCNC(=O)CCc2c(C)nc3c4c(C)cc(C)nc4nn3c2C)cc1OC | inactive: -7.11% | – |
| CCOc1ccc(CNC(=O)c2ccc3oc(=O)n(Cc4ccccc4)c3c2)cc1 | inactive: -26.2% | – |
| CC(=O)c1c(C)oc2ccc(N(C(=O)Oc3ccccc3)S(=O)(=O)c3ccc(Cl)cc3)cc12 | inactive: 11.9% [at 11.5 µM, percent change from vehicle, -100% = no light] | – |
| Cc1ccc(CNC(=O)C2CCN(S(=O)(=O)N3CCCCC3)CC2)cc1 | inactive: -16.2% | – |
| Cc1ccc(Cn2nnc3c(=O)[nH]c(C4CCN(C(=O)Cc5ccccc5F)CC4)nc32)cc1 | inactive: -34.2% | – |
| CCc1cccc(NS(=O)(=O)c2c(C)[nH]c(=O)[nH]c2=O)c1 | inactive: -2.28% | – |
| CC1CCN(S(=O)(=O)c2ccc3c(c2)CCN3C(=O)Nc2ccccc2Br)CC1 | inactive: -0.945% | – |
| COc1ccc2c(c1)cc(CNc1ccc(OC)c(OC)c1)c(=O)n2CC(=O)Nc1ccccc1C | inactive: -10.9% | – |
| CCc1ccc(C(=O)c2cn(CC(=O)Nc3ccc4c(c3)OCCO4)c3ccc(F)cc3c2=O)cc1 | inactive: -28% | – |
| Cc1ccc(NCc2cccn2-c2nnc(N3CCC(C(=O)NCCc4ccc(Cl)cc4)CC3)s2)cc1 | inactive: -31.9% | – |
| COc1ccc(-n2c(C)nc3c(cnn3-c3ccc(F)cc3)c2=O)cc1 | inactive: -30.5% | – |
| CCCCN(CC)CCCNC(=O)c1c(C)oc2ncnc(N3CCOCC3)c12 | inactive: -10.2% | – |
| CCc1nn2c(=O)cc(COC(=O)c3cccc(NC(=O)CCc4ccccc4)c3)nc2s1 | inactive: 15.5% | – |
| CCn1cc(/C=C(\NC(=O)c2ccc(OC)cc2)C(=O)NCCCn2ccnc2)c2ccccc21 | inactive: -15.7% | – |
| COc1ccccc1CNC(=O)C1CCN(c2nc3ccc(Cl)cc3[nH]2)CC1 | inactive: -17% | – |
| CCCCc1ccc(-n2nc3cc(C)c(NC(=O)c4ccc(C#N)cc4F)cc3n2)cc1 | inactive: 15.3% | – |
| COc1cc2c(=O)n(CCC(=O)NCC3CCCO3)c(=O)n(CC(=O)Nc3ccccc3C)c2cc1OC (configuration not stated) | inactive: 7.12% | – |
| CCc1nn(CC(=O)NCCc2ccc(OC)cc2OC)c(=O)c2cc3occc3n12 | inactive: -16.8% | – |
| Cc1c(C(=O)NCc2ccc(Cl)cc2)oc2ccc3c(c12)C(=O)CC(C)(C)O3 | inactive: 25.2% | – |

| SMILES | activity change, positive = activation | Potency |
| --- | --- | --- |
| CCCCOc1ccc(CNC(=O)c2cccc(NC(=O)N3CCSc4ncccc43)c2)cc1 | inactive: -41.3% | – |
| Cc1ccc(CNC(=O)CSc2ncc3c(n2)-c2cc(Cl)ccc2N(C)S3(=O)=O)cc1 | inactive: -2.85% | – |
| COc1nc(C)nc(Cl)c1NC1=NCCN1 | inactive | – |
| COc1ccc(-n2ncc3c(NCCCOC(C)C)ncnc32)cc1 | inactive: 11.5% | – |
| CCCCNC(=O)C1CCCN(S(=O)(=O)CCC)C1 (configuration not stated) | inactive: -10.9% | – |
| CCOc1ccccc1C1CC(=O)Nc2c1c(=O)n(C)c1ncnn21 (configuration not stated) | inactive: -9.56% | – |
| O=C(CCc1nc(CN2CCN(S(=O)(=O)c3ccc(Br)cc3)CC2)no1)N1CCCCC1 | inactive: -18.3% | – |
| COc1cc2cc(CNc3ccccc3)c(=O)n(CC(=O)Nc3cccc(Cl)c3C)c2cc1OC | inactive: -4.19% | – |
| CO/N=C(/C(=O)N[C@@H]1C(=O)N2C(C(=O)OCOC(=O)C(C)(C)C)=C(C)CS[C@H]12)c1csc(N)n1 | inactive: -8.07% | – |
| Cc1ccc(NC(=O)c2ccc(CN3CCN(C)CC3)cc2)cc1Nc1nc(-c2cccnc2)cs1 | inactive: 20.8% | – |
| COc1cc(NC(=O)Cn2c(=O)n(CC3CCC(C(=O)NCCc4ccccc4)CC3)c(=O)c3ccccc32)cc(OC)c1 (configuration not stated) | inactive: -12.2% | – |
| COc1cccc(Cn2cc(C(=O)c3ccccc3)c(=O)c3cc4c(cc32)OCO4)c1 | inactive: -31.2% | – |
| CCOc1cccc2sc(N(Cc3cccnc3)C(=O)c3ccc(C#N)cc3)nc12 | inactive: -16.8% | – |
| COc1ccc(NC(=O)CC2NCCNC2=O)c(OC)c1 (configuration not stated) | inactive: -11.7% | – |
| Cc1c(CC(=O)NCc2ccc(F)cc2)c(=O)oc2cc(O)c(Cl)cc12 | inactive: -19.2% | – |
| CCOC(=O)c1c(NC(=O)C2c3ccccc3Oc3ccccc32)sc(C)c1C | inactive: -31.7% | – |
| O=C(NCc1ccccc1Cl)c1ccc2oc(=O)n(Cc3ccccc3)c2c1 | inactive: -29.8% | – |
| Cc1cc(C)n(-c2nc3ccccc3nc2N2CCN(c3cccc(C(F)(F)F)c3)CC2)n1 | inactive: -2.45% | – |
| Cc1cccc(-n2nc(C)c(C(=O)Nc3cc(C)ccc3C)c2-n2cccc2)c1 | inactive: -28.5% | – |

| SMILES | activity change, positive = activation | Potency |
| --- | --- | --- |
| COC(=O)c1cc(-c2ccc(C)cc2)c2c(=O)n(C)c(=O)n(C)c2n1 | inactive: -0.395% | – |
| Cc1nc(-c2ccc(F)cc2)sc1CCNC(=O)C(=O)Nc1ccc2c(c1)OCCO2 | inactive: -19.3% | – |
| OCCN(CCO)c1ncnc2c1cnn2-c1ccc(F)cc1 | – | active: 7.94 µM |
| COc1ccccc1C(=O)Oc1ccc(C(c2c(C)[nH][nH]c2=O)c2c(C)[nH][nH]c2=O)cc1 | inactive: 13.6% [at 11.5 µM, percent change from vehicle, -100% = no light] | – |
| COc1cccc(CNC(=O)c2cc(S(=O)(=O)N3CCCCC3)c[nH]2)c1 | inactive: -9.29% | – |
| COc1ccc(CC(=O)Nc2ccc(-c3nc4ccccc4s3)c(C)c2)cc1OC | inactive: 3.17% | – |
| COc1ccc2oc(=O)c(C(=O)N3CCN(c4ccc(C)cc4)CC3)cc2c1 | inactive: -6.92% | – |
| Cc1csc2nc(COC(=O)c3ccccc3NC(=O)c3ccc(C(C)(C)C)cc3)cc(=O)n12 | inactive: -20.7% | – |
| COc1ccc(-c2cc(C(F)(F)F)nc(NCCc3ccccc3)n2)cc1OC | inactive: -17% | – |
| O=C(CCCn1c(=O)c2cccn2c2ccccc21)NCCc1ccc(Cl)cc1 | inactive: -19.5% | – |
| CSc1nn(Cc2ccc(C)cc2)c(N)c1S(=O)(=O)c1ccccc1 | inactive: -43.6% | – |
| Cc1ccc(S(=O)(=O)NC(=O)NN2CC3CCCC3C2)cc1 (configuration not stated) | inactive | – |
| COc1ccc(OC)c(NC(=O)Cn2c(=O)cc(-c3ccccc3)c3c(C)nn(C)c32)c1 | inactive: -36.5% | – |
| CCOC(=O)CNC(=O)N1CCN(c2nnc(C)c3c(C)n(-c4ccc(Cl)cc4)nc23)CC1 | inactive: -2.67% | – |
| Cc1cccc(N2CCN(C(=O)CS(=O)(=O)Cc3nc(-c4ccccc4C)oc3C)CC2C)c1 (configuration not stated) | inactive: -32.8% | – |
| CCc1ccc(S(=O)(=O)c2nnn3c2nc(Nc2ccc(NC(C)=O)cc2)c2sccc23)cc1 | inactive: -10.2% | – |
| CCOc1ccc(N(Cc2ccccc2)C(=O)c2nc(S(C)(=O)=O)ncc2Cl)cc1 | inactive: -94.5% | – |
| O=S(=O)(NCc1nc2cccnc2n1Cc1ccccc1Cl)c1ccc(F)c(Cl)c1 | inactive: -27.1% | – |
| CC(=O)c1c(C)oc2c1cc(NS(=O)(=O)c1ccc(Cl)c(C)c1)c1ccccc12 | inactive: 15.2% [at 11.5 µM, percent change from vehicle, -100% = no light] | – |
